Data on three compounds can be found in patent US11542275B2, “Substituted imidazolidin-2-one derivatives as PRMT5 inhibitors” (Aurigene Discovery Technologies Limited, priority 2018, dated 2023).

The target of the assay is PRMT5/MEP50 Complex (Homo sapiens (Human), UniProt O14744). Kind of assay: PRMT5 inhibition based on TR-FRET assay. The format is biochemical. Particulars: 32 nM PRMT5:MEP50 complex, 50 nM Histone-H4 peptide, 1 μM SAM, 90 minutes at room temperature. The source says:
Protein arginine methyltransferase 5 (PRMT5) is a type II arginine methyltransferase that catalyze mono- and symmetric demethylation on arginine residues of histone or non-histone proteins in presence of S-adenosylmethionine (AdoMet or SAM) a cofactor responsible for donating the methyl group. PRMT5 is reported to be overexpressed in several human cancers. To identify compounds that inhibit the PRMT5 and decrease its activity, a TR-FRET based assay has been established. Time-resolved fluorescence resonance energy transfer (TR-FRET) HTS assays are homogeneous proximity assays where the interaction of two dye-labeled binding partners is detected by the energy transfer between a donor and an acceptor dye, and the subsequent light emission by the acceptor dye. PRMT5 catalyzes Histone H4 peptide which is biotin tagged to the Lysine amino acid at carboxyl end, in presence of S-adenosyl-1-methionine (SAM) to methylate the peptide. The antibody specific to mono methylated H4 peptide (H4R3) with Ig conjugate binds to the methylated peptide, indirectly binding to the Europium lanthanide. SureLight Allophycocyanin-Streptavidin binds to the biotin tag of the peptide, therefore accepting the energy transferred from the Europium lanthanide. This energy transfer between Europium to SureLight Allophycocyanin is a direct measure of the activity/inhibition of the PRMT5 enzyme.
Assay buffer: 20 mM BICINE (pH 7.6), 25 mM NaCl, 2 mM DTT, 0.01% Tween-20 and 0.01% BSA.
The compound dilutions were prepared as 7.5% DMSO stock solutions in assay buffer. To 2 μL (7.5×) of test compound, 5 μL of PRMT5 enzyme prepared in assay buffer (Final concentration of 32 nM in 15 μL reaction volume) was added and allowed for 30 minutes pre-incubation time in a white polystyrene 384-well plate at room temperature. […] The plates were then read on Victor-3 with Excitation at 340 nm and Emissions collected at 615 and 665 nm in TR-FRET protocol. […]
For orientation: In TR-FRET formats the signal depends on donor and acceptor labels being close together.

What is called IC50 is the concentration that gives 50% inhibition. Higher therefore signals weaker potency in that assay.

The compound `CC(=O)N1CCC(c2ccc(CN3CCN(C[C@H](O)CN4CCc5ccccc5C4)C3=O)nn2)CC1` [Compound 38, (R)-1-((6-(1-acetylpiperidin-4-yl)pyridazin-3-yl)methyl)-3-(3-(3,4-dihydroisoquinolin-2(1H)-yl)-2-hydroxypropyl)imidazolidin-2-one] registered an IC50 of 69 nM. This counts as double-digit nanomolar. In the case of `CS(=O)(=O)N1CCC(c2ccc(CN3CCN(C[C@H](O)CN4CCc5ccccc5C4)C3=O)nc2)CC1` [Compound 43, (R)-1-(3-(3,4-dihydroisoquinolin-2(1H)-yl)-2-hydroxypropyl)-3-((5-(1-(methylsulfonyl)piperidin-4-yl)pyridin-2-yl)methyl)imidazolidin-2-one] it was 10 nM. In the case of `O=C(C1CC1)N1CCC(c2ccc(CN3CCN(C[C@H](O)CN4CCc5ccccc5C4)C3=O)cn2)CC1` [Compound 57, (R)-1-((6-(1-(cyclopropanecarbonyl)piperidin-4-yl)pyridin-3-yl)methyl)-3-(3-(3,4-dihydroisoquinolin-2(1H)-yl)-2-hydroxypropyl)imidazolidin-2-one] it was 40 nM.
